Drawing on publication PMC10320511, this text covers binding for 1 substance.

Sequences of proteins named here, by UniProt entry; tags and fusion partners are left off.
UniProt Q01371: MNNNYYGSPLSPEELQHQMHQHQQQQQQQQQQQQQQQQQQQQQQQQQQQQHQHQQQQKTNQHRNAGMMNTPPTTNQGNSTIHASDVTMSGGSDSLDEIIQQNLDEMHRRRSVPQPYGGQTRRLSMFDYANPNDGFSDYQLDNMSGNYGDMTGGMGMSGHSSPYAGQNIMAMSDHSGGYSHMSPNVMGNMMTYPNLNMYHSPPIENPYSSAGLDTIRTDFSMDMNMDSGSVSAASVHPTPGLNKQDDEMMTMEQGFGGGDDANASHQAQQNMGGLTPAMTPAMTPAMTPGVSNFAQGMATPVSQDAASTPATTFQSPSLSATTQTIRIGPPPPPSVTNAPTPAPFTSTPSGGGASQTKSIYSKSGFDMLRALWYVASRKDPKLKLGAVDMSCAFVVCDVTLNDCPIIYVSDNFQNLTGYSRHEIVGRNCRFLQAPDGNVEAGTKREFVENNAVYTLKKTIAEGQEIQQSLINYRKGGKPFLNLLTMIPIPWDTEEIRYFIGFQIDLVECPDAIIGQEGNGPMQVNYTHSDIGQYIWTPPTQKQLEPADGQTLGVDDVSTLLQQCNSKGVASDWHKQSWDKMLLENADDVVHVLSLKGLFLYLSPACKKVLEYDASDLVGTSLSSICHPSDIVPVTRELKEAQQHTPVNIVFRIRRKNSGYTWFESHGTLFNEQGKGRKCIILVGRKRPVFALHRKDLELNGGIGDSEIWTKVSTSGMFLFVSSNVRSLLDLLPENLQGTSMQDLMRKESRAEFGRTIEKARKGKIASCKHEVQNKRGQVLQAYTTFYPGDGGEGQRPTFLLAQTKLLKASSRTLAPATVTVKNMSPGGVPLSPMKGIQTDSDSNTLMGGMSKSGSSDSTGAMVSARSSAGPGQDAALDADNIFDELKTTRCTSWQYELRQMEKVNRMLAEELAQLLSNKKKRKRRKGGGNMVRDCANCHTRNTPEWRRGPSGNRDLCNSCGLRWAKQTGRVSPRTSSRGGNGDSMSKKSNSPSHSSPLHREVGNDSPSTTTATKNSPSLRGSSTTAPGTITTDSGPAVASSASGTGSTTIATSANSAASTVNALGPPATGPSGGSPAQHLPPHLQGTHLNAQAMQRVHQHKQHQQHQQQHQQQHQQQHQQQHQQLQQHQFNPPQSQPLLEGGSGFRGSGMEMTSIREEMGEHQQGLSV

Results are given in words; binding and its absence hold for the method and conditions named. In cells and extracts the contact can be indirect. Some results given as binding are weak or reduced against the parent protein; the word gives no strength. Sequences can lack the tags named with a protein.

What all share (assay): co-IP; V5H6-tagged FRQ (wild type or mutant) pulled down with V5 agarose from Neurospora lysate (cultures in the light, 25 °C); 50 mM Hepes pH 7.4, 137 mM NaCl, 10% glycerol, 0.4% NP-40; 4 °C, 2 h; Western blot with FRQ, FRH, WC-1 and WC-2 antibodies
The target in experiment [1] is T1, FRQ Δ733–774, V5H6-tagged (Neurospora crassa) (UniProt P19970).
T1 sequence: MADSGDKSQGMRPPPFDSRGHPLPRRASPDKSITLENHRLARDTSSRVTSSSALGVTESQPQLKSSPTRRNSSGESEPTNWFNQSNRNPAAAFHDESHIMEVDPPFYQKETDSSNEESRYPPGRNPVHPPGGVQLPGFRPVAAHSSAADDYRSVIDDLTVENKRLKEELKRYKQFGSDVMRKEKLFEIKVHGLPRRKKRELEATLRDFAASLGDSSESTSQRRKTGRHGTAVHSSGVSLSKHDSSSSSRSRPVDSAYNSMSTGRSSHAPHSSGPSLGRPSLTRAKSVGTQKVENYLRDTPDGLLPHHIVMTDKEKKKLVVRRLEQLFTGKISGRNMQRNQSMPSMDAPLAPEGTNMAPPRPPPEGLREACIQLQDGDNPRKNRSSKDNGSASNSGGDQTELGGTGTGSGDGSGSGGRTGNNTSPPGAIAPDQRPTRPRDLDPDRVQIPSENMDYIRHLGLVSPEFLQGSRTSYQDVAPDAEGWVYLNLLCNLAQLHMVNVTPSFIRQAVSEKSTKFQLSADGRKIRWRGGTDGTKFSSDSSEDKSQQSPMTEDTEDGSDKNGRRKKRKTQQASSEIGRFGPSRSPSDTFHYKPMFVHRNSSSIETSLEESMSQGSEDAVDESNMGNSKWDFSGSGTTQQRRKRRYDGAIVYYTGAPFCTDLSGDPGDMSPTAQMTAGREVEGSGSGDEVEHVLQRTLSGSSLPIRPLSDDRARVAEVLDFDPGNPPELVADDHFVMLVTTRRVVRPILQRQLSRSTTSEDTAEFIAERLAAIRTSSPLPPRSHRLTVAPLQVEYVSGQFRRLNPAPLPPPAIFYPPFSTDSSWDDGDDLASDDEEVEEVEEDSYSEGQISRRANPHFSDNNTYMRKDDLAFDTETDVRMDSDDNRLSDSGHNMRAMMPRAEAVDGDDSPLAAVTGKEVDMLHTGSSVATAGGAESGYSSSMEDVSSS

The target of experiment [2] is T2, FRQ 1–558, V5H6-tagged (Neurospora crassa) (UniProt P19970).
T2 sequence: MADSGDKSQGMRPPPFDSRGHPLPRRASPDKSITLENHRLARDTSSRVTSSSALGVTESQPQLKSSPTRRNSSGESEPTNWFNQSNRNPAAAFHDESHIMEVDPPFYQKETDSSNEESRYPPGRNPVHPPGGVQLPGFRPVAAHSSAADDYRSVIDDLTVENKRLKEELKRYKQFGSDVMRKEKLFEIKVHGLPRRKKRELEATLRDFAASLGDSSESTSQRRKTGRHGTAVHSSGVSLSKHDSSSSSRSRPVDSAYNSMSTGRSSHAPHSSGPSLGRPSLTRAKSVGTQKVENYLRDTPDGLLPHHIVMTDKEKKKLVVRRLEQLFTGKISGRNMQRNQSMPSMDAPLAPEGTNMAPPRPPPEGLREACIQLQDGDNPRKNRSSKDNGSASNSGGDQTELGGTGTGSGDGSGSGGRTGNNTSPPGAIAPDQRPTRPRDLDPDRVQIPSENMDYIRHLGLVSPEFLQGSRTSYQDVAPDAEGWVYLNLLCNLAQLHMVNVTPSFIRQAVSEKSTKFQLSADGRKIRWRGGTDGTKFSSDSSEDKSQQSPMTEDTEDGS

The target of experiment [3] is T3, FRQ Δ564–603, V5H6-tagged (Neurospora crassa) (UniProt P19970).
T3 sequence: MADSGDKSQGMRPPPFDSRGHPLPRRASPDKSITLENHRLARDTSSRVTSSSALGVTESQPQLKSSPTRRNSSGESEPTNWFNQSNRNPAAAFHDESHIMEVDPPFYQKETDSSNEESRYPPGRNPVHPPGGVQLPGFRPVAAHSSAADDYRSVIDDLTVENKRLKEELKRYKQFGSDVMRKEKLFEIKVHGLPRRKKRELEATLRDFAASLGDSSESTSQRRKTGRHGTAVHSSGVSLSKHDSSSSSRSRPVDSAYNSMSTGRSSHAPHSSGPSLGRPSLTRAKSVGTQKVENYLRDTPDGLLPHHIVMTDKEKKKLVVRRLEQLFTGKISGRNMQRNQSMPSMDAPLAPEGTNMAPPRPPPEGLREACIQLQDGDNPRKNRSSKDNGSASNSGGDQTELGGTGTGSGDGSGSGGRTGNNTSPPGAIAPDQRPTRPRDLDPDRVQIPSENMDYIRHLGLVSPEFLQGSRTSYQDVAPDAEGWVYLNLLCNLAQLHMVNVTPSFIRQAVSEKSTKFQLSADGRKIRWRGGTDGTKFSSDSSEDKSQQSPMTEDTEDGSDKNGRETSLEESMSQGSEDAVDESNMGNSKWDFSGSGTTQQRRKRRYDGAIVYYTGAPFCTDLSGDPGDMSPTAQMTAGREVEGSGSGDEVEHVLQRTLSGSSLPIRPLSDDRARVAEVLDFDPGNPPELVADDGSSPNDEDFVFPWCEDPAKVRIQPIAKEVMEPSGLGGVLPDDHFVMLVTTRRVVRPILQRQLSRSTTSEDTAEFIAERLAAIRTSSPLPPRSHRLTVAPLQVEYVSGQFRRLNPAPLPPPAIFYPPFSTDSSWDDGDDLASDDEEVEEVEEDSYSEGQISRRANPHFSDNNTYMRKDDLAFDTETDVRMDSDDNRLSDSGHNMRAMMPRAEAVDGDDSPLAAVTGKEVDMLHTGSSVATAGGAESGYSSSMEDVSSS

For “White Collar-1 (WC-1) (from UniProt Q01371 1-1167)”, the binding result in experiment [1] is reported as “no binding”; in experiment [2], “no binding”; in experiment [3], “binds weakly”.
